From article PMC4336329 (PLoS ONE, 2015)
Among all 310,000 compounds or so, about 2,200 (0.71%) showed an effect of 50% or more. Effects have a minus sign here. The list shows a part of the results.

What follows are compounds tested against human ether-à-go-go-related gene (hERG) potassium channel (human, UniProt Q12809) (assay: primary screen, population patch clamp on CHO cells stably expressing hERG).
Chain of human ether-à-go-go-related gene (hERG) potassium channel (Q12809 whole entry, looked up): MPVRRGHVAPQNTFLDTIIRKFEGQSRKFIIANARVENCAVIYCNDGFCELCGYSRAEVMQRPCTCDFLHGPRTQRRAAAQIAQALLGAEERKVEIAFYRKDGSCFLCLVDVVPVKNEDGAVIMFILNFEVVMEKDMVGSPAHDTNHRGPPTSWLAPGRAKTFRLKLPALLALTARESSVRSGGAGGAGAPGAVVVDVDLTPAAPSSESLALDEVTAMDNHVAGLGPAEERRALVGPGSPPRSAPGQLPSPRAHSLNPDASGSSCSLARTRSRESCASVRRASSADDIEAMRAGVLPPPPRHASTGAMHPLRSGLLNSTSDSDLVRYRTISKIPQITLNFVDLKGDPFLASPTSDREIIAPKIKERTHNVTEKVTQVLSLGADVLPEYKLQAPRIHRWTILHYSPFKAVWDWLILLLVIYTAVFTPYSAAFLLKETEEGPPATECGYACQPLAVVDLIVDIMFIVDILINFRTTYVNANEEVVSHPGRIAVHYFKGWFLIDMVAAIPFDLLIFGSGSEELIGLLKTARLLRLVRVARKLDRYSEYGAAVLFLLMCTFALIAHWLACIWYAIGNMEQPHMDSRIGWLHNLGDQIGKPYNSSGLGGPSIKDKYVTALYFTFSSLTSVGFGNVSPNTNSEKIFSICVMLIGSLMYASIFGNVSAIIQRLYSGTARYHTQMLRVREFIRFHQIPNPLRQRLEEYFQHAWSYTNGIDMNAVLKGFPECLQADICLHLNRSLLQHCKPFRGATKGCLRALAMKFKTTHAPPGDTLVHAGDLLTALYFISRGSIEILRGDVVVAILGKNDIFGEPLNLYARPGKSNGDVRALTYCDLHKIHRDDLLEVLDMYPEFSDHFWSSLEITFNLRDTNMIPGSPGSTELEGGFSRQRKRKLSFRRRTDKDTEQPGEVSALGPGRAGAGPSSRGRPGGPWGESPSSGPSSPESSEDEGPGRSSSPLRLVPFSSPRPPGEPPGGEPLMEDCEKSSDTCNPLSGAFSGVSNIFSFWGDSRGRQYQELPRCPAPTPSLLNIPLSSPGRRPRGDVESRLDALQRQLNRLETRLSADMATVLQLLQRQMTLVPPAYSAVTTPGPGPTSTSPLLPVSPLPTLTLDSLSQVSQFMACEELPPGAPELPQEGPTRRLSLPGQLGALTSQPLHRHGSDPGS

SMILES	hERG current change (%, negative = inhibition) at 1uM [%]
CCOc1ccc(C(=O)CCC(=O)N(CC)CC(=O)NCc2cccs2)cc1	-0.995
N#CCc1nc(CSc2nc3ccccc3o2)cs1	11.5
COCCNC(=S)N/N=C(\C)c1cccc(OC)c1	2.94
CC(=O)c1ccc(C(=O)N2CCCC(CNC(=O)c3ccccc3Cl)C2)cc1 (stereo not shown)	4.16
CCO[C@H]1OC(C(=O)NC2CC2)=C[C@@H](c2csc3ccccc23)[C@@H]1CCCO	-1.5
Cc1cc([N+](=O)[O-])nn1CC(=O)Nc1c(C)n(C)n(-c2ccccc2)c1=O	6.23
CC(C)c1ccc(NS(=O)(=O)c2cn(C)c(=O)n(C)c2=O)cc1	9.27
COc1ccc(-c2nc[nH]c2[N+](=O)[O-])cc1	13.4
O=C(CSc1nnc(-c2cccnc2)n1Cc1ccco1)c1ccc(Cl)cc1	-21.1
Cc1c(C(=O)Nc2ccc(S(N)(=O)=O)cc2)oc2ccc(Cl)cc12	14.8
COCC(C)n1c(C)cc(C(=O)CSc2ccc(NC(C)=O)cc2)c1C (stereo not shown)	1.1
COC(=O)C1=C(c2cccc(C#N)c2)C[C@@H]2CC[C@H]1N2C(=O)NC(C)C	18.6
CC(C)Cn1c(N)c(C(=O)CSc2nnc(-c3ccco3)n2C)c(=O)n(C)c1=O	10.7
Cc1ccc2c(c1)C1CN(C)CCC1N2C(=O)c1cn(-c2ccccc2)nc1-c1ccccc1 (stereo not shown)	5.01
NS(=O)(=O)c1ccc(NC(=O)CSc2nc(Nc3ccccc3)nc(N3CCOCC3)n2)cc1	24.9
CCNC(=O)c1nc[nH]c1C(=O)NCC	6.65
O=C(c1ccco1)N1CCN(C(c2coc3ccc(Cl)cc3c2=O)c2nnnn2C2CCCC2)CC1 (stereo not shown)	-5.06
O=C(C(=O)N1CCCC1)c1c[nH]c2ccccc12	13.5
CCN(c1cccc(C)c1)S(=O)(=O)c1ccc2c3c(cccc13)C(=O)N2	11.4
CCCN(CC(=O)Nc1ccccc1OC)C(=O)Cc1ccccc1F	10.4
C[n+]1ccccc1C1CCCC/C1=N\Nc1ccc([N+](=O)[O-])cc1[N+](=O)[O-].[I-] (stereo not shown)	4.39
COc1ccc(/C=N/NC(=O)c2ccn[nH]2)cc1COc1ccc(F)cc1	17.4

SMILES	hERG current change (%, negative = inhibition) at 1uM [%]
CC(=O)c1ccc(NC(=O)C(C)Sc2nnc(C3CCCCC3)o2)cc1 (stereo not shown)	11.5
O=S1(=O)N=C(N/N=C/c2ccc(Br)o2)c2ccccc21	8.15
O=C1CN(CC(=O)NC2CCCc3ccccc32)CCN1 (stereo not shown)	2.49
O=C(Cn1cc(-c2nnnn2-c2ccc(Cl)cc2)c(=O)c2ccccc21)c1ccccc1	7.63
CCNC(=S)N1CCC(C(O)(c2ccccc2)c2ccccc2)CC1	15.7
O=C(CNC(=O)c1ccco1)OCC(=O)c1ccc(Cl)cc1	-1.2
Cc1cc[n+](Cc2ccccc2)c(N)c1.[Cl-]	4.97
O=C(O)C(c1ccccc1)C(c1ccccc1)c1ccccc1 (stereo not shown)	7.25
O=C(O)C(Cc1ccccc1)n1c(=S)[nH]c2ccccc2c1=O (stereo not shown)	16.6
CCN1CCc2c(OCC(=O)N3CCC(C)CC3)cccc2C1=O	16.4
O=C(CCN1C(=O)/C(=C\c2ccc(F)cc2)SC1=S)Nc1ccc(O)cc1	15.2
O=c1ccc2cc(S(=O)(=O)N3CCN(c4ccccc4F)CC3)ccc2[nH]1	-14.9
CC(=O)C1=C(O)C(=O)N(Cc2ccccc2)C1c1ccco1 (stereo not shown)	11.2
COCCNC(=O)c1ccc(-n2c(SCc3cc(F)ccc3F)nc3ccccc3c2=O)cc1	14.4
Cc1ccc(S(=O)(=O)Nc2nc3ccc(S(C)(=O)=O)cc3s2)cc1	14
N#CCCN/N=C(/Cc1nc2ccccc2[nH]1)c1ccc(Cl)cc1	9.16
CCCCNS(=O)(=O)c1ccc(OC)c2ncccc12	2.72
O=C(COC(=O)c1c[nH]c(=O)[nH]c1=O)Nc1ccccc1F	7.85
O=C(NCc1ccc(OC(F)(F)F)cc1)C1CC(c2ccccc2C(F)(F)F)=NO1 (stereo not shown)	3.2
O=C(CSc1ccc2c(c1)OCCO2)Nc1cccnc1	15.2
Cc1ccc(/C=N/NC(=O)Cc2ccc(Cl)cc2)c(O)c1	4.75
CCN1CCCC1CNC(=O)c1cc2c(OC)c(OC)c(OC)cc2[nH]1 (stereo not shown)	15.2

SMILES	hERG current change (%, negative = inhibition) at 1uM [%]
CCc1nnc(NC(=O)CSc2nnc(-c3ccco3)n2C)s1	1.33
c1ccc2[nH]c(CSc3nccs3)nc2c1	-5.9
CC(C)(C)C1CCC(=NNC(=O)c2ccc(Br)o2)CC1 (stereo not shown)	15.6
O=[N+]([O-])c1ccc(Nc2nc(N/N=C/c3cccc(F)c3)nc(N3CCCC3)n2)cc1	0.507
CC(C)(C)c1ccc(C(CC(=O)O)NC(=O)Cc2ccc(F)cc2)cc1 (stereo not shown)	10.9
COc1ccccc1CNC(=O)COC(=O)c1ccc2c(=O)n3c(nc2c1)CCCCC3	10.1
Cc1ccc(S(=O)(=O)N2[C@@H](c3cccc(Cl)c3)C(C(=O)O)=CC[C@H]2c2ccc(Cl)cc2)cc1	14
O=C(NC12CC3CC(CC(C3)C1)C2)C12CC3CC(C1)CC(n1cnc(Cl)n1)(C3)C2	7.58
CN1C(=O)NC(c2ccccc2Cl)C2=C1CC(C)(C)CC2=O (stereo not shown)	10.4
CCc1ccccc1NC(=O)CSc1nc2ccccc2n1CC(=O)N1CCCC1	9.64
CCOc1ccccc1NC(=O)C1CCCN(C(=O)Nc2ccccc2)C1 (stereo not shown)	14.1
CCO[C@@H]1OC(C(=O)NCc2nc3ccccc3[nH]2)=C[C@H](c2ccc(C(F)(F)F)cc2)[C@H]1CCCO	16.6
Cc1nnc(-c2ccccc2)nc1N(C)C	6.41
COc1ccc(C(=O)N(CC(=O)Nc2sc(C)c(C)c2C(N)=O)C2CCCC2)cc1	4.92
COc1ccc(NC(C)=O)cc1S(=O)(=O)Nc1ccc2c(c1)OCCO2	4.09
COc1ccccc1OCc1ccc(C(=O)N(C)C)o1	18.9
CC1OC2(OC1C)C(=O)Nc1ccccc12 (stereo not shown)	6.93
CNC(=O)N1CCN(C(=O)NC)CC1	14.3
CCSc1nnc2c(n1)OC1(CCCC1)Nc1ccccc1-2	7.49
N#CC(=C1CCCC1)c1nc(-c2ccccc2O)cs1	2.91
COc1ccc(/C(C)=C2/SC(=S)N(CCC(=O)O)C2=O)cc1	8.62
O=C1C(=O)N(Cc2ccccc2)C(c2cccc(O)c2)/C1=C(\O)c1ccc2c(c1)OCCO2 (stereo not shown)	7.58

SMILES	hERG current change (%, negative = inhibition) at 1uM [%]
CN(C)C(=S)NC(=O)C12CC3(C)CC(C)(CC(C)(C3)C1)C2	12.9
O=C(Nc1nc(-c2nc3ccccc3s2)cs1)C1COc2ccccc2O1 (stereo not shown)	13.3
O=C(NCCS(=O)(=O)N1CCN(c2ccccc2F)CC1)c1ccc2c(c1)OCO2	18.2
CS(=O)(=O)N1CCC(Oc2ccccc2C(=O)N2CCN(CC3CC3)CC2)CC1	12.6
CC(C)C[C@H]1COCCS(=O)(=O)N1Cc1ccc(Cl)c(Cl)c1	10.1
COCCCNC(=O)/C(C#N)=c1\s/c(=C\c2ccccc2OC(F)F)c(=O)n1CCCOC	17.5
O=C1Nc2ccc(S(=O)(=O)N3CCOCC3)c3cccc1c23	12.6
COc1ccc(C2NC(Cc3ccccc3)(C(=O)O)C3C(=O)N(c4ccccc4OC)C(=O)C23)cc1 (stereo not shown)	14.4
O=C(CSc1nc2c(c(=O)n1-c1ccccc1)SCC2)N1CCOCC1	14.7
Cc1cccc(NS(=O)(=O)c2c(C)[nH]c(C)c2C(=O)N2CCCC2)c1	9.15
COc1ccc([N+](=O)[O-])cc1NC(=S)Nc1ccccc1	3.35
Cc1ccccc1C(=O)NNC1=NCCC1	2.43
CCCN(CCC)C(=O)CSc1nc2ccccc2c(=O)n1CC1COc2ccccc2O1 (stereo not shown)	-4.64
CC(C)CNC(=O)COC(=O)c1cc(Cl)cc(Cl)c1N	-7.19
COC(=O)c1ccc(CNC(=O)c2ccc3oc(C(C)C)nc3c2)cc1	7.66
CCC(C(=O)OCC(=O)Nc1c(Cl)cccc1Cl)c1ccccc1 (stereo not shown)	10.8
Cc1[nH]c2c(Cl)cccc2c(=O)c1CN1CCCCCC1	-7.26
CCC(=O)Nc1nc2ccccc2n1CCN(CC)CC	-0.302
CCOc1cc(N2CCOCC2)c(OCC)cc1NC(=O)c1ccc(S(C)(=O)=O)cc1	8.68
CC(NC(=O)c1cccc(S(=O)(=O)N2CCc3ccccc32)c1)c1ccco1 (stereo not shown)	3.82
O=C(CCc1nnc2ccc(NCc3ccco3)nn12)N1CCN(c2ccccc2)CC1	-6.8
Cn1c(-c2ccc3c(c2)OCO3)cnc1NCc1ccccc1.O=C(O)C(=O)O	-23.1
